# The supplement of paper PMC8728848
# Some of the results follow.
# B1: RBMC2 (Vibrio cholerae) (protein)
# chain: KISVRSGFAIDAIGASASTLVGGTGGNLNAAVNVKDIKAIDLTWGKYYWGGYHLLALDFRMSNGSVISMGSKNYAYSKQTERFTVPAGSRIKGIKAWTAGWLLDGVQFELA
# What was measured:
# Test in all cases: glycan array binding signal (z-score within array); higher = stronger binding
# Details in all cases: glycan notation: IUPAC condensed, linker removed
# [1] = molecular target: Man(a1-2)Man(a1-3)[Man(a1-2)Man(a1-6)]Man(a1-6)[Man(a1-2)Man(a1-2)Man(a1-3)]Man
# How it was run: (§1)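 The binding signal is a Z-score computed within each array. Data were drawn from 3228 arrays in the Consortium for Functional Glycomics database, restricted to those with a known protein sequence. Scores were averaged over arrays of the same protein sequence at different concentrations or buffers, and over linkers, and negative values can be taken as non-binding.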
# [2] = molecular target: Man(a1-2)Man(a1-3)[Man(a1-2)Man(a1-6)]Man(a1-6)[Man(a1-2)Man(a1-2)Man(a1-3)]Man(b1-4)GlcNAc(b1-4)GlcNAc
# How it was run: as §1
# [3] = molecular target: Man(a1-2)Man(a1-3)[Man(a1-6)]Man(a1-6)[Man(a1-2)Man(a1-3)]Man(b1-4)GlcNAc(b1-4)GlcNAc
# How it was run: as §1
# [4] = molecular target: Man(a1-2)Man(a1-6)[Man(a1-3)]Man(a1-6)[Man(a1-2)Man(a1-2)Man(a1-3)]Man
# How it was run: as §1
# [5] = molecular target: Man(a1-2)Man(a1-6)[Man(a1-3)]Man(a1-6)[Man(a1-2)Man(a1-2)Man(a1-3)]Man(b1-4)GlcNAc(b1-4)GlcNAc
# How it was run: as §1
# Man(a1-3)[Man(a1-6)]Man = molecular target: Man(a1-3)[Man(a1-6)]Man
# How it was run: as §1
# [6] = molecular target: Man(a1-3)[Man(a1-6)]Man(a1-6)[Man(a1-2)Man(a1-3)]Man(b1-4)GlcNAc(b1-4)GlcNAc
# How it was run: as §1
# [7] = molecular target: Man(a1-3)[Man(a1-6)]Man(a1-6)[Man(a1-3)]Man
# How it was run: as §1
# [8] = molecular target: Man(a1-3)[Man(a1-6)]Man(a1-6)[Man(a1-3)]Man(b1-4)GlcNAc(b1-4)GlcNAc
# How it was run: as §1
# [9] = molecular target: Man(a1-3)[Man(a1-6)]Man(b1-4)GlcNAc(b1-4)GlcNAc
# How it was run: as §1
# [10] = molecular target: Man(a1-3)[Man(a1-6)]Man(b1-4)GlcNAc(b1-4)[Fuc(a1-6)]GlcNAc
# How it was run: as §1
# Man(a1-6)Man = molecular target: Man(a1-6)Man
# How it was run: as §1
# Man(b1-4)GlcNAc = molecular target: Man(b1-4)GlcNAc
# How it was run: as §1
# MurNAc(b1-4)GlcNAc = molecular target: MurNAc(b1-4)GlcNAc
# How it was run: as §1
# Neu5Ac(a2-3)Gal = molecular target: Neu5Ac(a2-3)Gal
# How it was run: as §1
# [11] = molecular target: Neu5Ac(a2-3)Gal(b1-3)GalNAc
# How it was run: as §1
# [12] = molecular target: Neu5Ac(a2-3)Gal(b1-3)GalNAc(b1-3)Gal(a1-4)Gal(b1-4)Glc
# How it was run: as §1
# [13] = molecular target: Neu5Ac(a2-3)Gal(b1-3)GalNAc(b1-4)Gal(b1-4)Glc
# How it was run: as §1
# [14] = molecular target: Neu5Ac(a2-3)Gal(b1-3)GalNAc(b1-4)[Neu5Ac(a2-3)]Gal(b1-4)Glc
# How it was run: as §1
# [15] = molecular target: Neu5Ac(a2-3)Gal(b1-3)GalNAc(b1-4)[Neu5Ac(a2-8)Neu5Ac(a2-3)]Gal(b1-4)Glc
# How it was run: as §1
# [16] = molecular target: Neu5Ac(a2-3)Gal(b1-3)GalNAc6S
# How it was run: as §1
# [17] = molecular target: Neu5Ac(a2-3)Gal(b1-3)GlcNAc
# How it was run: as §1
# [18] = molecular target: Neu5Ac(a2-3)Gal(b1-3)GlcNAc(b1-2)Man
# How it was run: as §1
# [19] = molecular target: Neu5Ac(a2-3)Gal(b1-3)GlcNAc(b1-2)Man(a1-3)[GlcNAc(b1-4)][Neu5Ac(a2-3)Gal(b1-3)GlcNAc(b1-2)Man(a1-6)]Man(b1-4)GlcNAc(b1-4)GlcNAc
# How it was run: as §1
# [20] = molecular target: Neu5Ac(a2-3)Gal(b1-3)GlcNAc(b1-2)Man(a1-3)[Neu5Ac(a2-3)Gal(b1-3)GlcNAc(b1-2)Man(a1-6)]Man(b1-4)GlcNAc(b1-4)GlcNAc
# How it was run: as §1
# [21] = molecular target: Neu5Ac(a2-3)Gal(b1-3)GlcNAc(b1-2)[Neu5Ac(a2-3)Gal(b1-3)GlcNAc(b1-4)]Man(a1-6)[Neu5Ac(a2-3)Gal(b1-3)GlcNAc(b1-2)Man(a1-3)]Man(b1-4)GlcNAc(b1-4)GlcNAc
# How it was run: as §1
# [22] = molecular target: Neu5Ac(a2-3)Gal(b1-3)GlcNAc(b1-3)Gal(b1-3)GlcNAc
# How it was run: as §1
# [23] = molecular target: Neu5Ac(a2-3)Gal(b1-3)GlcNAc(b1-3)Gal(b1-4)GlcNAc
# How it was run: as §1
# [24] = molecular target: Neu5Ac(a2-3)Gal(b1-3)GlcNAc(b1-3)GalNAc
# How it was run: as §1
# [25] = molecular target: Neu5Ac(a2-3)Gal(b1-3)GlcNAc(b1-6)GalNAc
# How it was run: as §1
# [26] = molecular target: Neu5Ac(a2-3)Gal(b1-3)GlcNAc6S
# How it was run: as §1
# [27] = molecular target: Neu5Ac(a2-3)Gal(b1-3)[Fuc(a1-4)]GlcNAc
# How it was run: as §1
# [28] = molecular target: Neu5Ac(a2-3)Gal(b1-3)[Fuc(a1-4)]GlcNAc(b1-3)Gal(b1-3)[Fuc(a1-4)]GlcNAc
# How it was run: as §1
# [29] = molecular target: Neu5Ac(a2-3)Gal(b1-3)[Fuc(a1-4)]GlcNAc(b1-3)Gal(b1-4)[Fuc(a1-3)]GlcNAc
# How it was run: as §1
# [30] = molecular target: Neu5Ac(a2-3)Gal(b1-3)[GlcNAc(b1-6)]GalNAc
# How it was run: as §1
# [31] = molecular target: Neu5Ac(a2-3)Gal(b1-3)[Neu5Ac(a2-6)]GalNAc
# How it was run: as §1
# [32] = molecular target: Neu5Ac(a2-3)Gal(b1-3)[Neu5Ac(a2-6)]GlcNAc(b1-3)[Fuc(a1-3)[Gal(b1-4)]GlcNAc(b1-6)]Gal(b1-4)Glc
# How it was run: as §1
# [33] = molecular target: Neu5Ac(a2-3)Gal(b1-3)]Neu5Ac(a2-3)Gal(b1-4)]GlcNAc
# How it was run: as §1
# Neu5Ac(a2-3)Gal(b1-4)Glc = molecular target: Neu5Ac(a2-3)Gal(b1-4)Glc
# How it was run: as §1
# [34] = molecular target: Neu5Ac(a2-3)Gal(b1-4)GlcNAc
# How it was run: as §1
# [35] = molecular target: Neu5Ac(a2-3)Gal(b1-4)GlcNAc(b1-2)Man
# How it was run: as §1
# [36] = molecular target: Neu5Ac(a2-3)Gal(b1-4)GlcNAc(b1-2)Man(a1-3)[GlcNAc(b1-4)][Neu5Ac(a2-3)Gal(b1-4)GlcNAc(b1-2)Man(a1-6)]Man(b1-4)GlcNAc(b1-4)GlcNAc
# How it was run: as §1
# [37] = molecular target: Neu5Ac(a2-3)Gal(b1-4)GlcNAc(b1-2)Man(a1-3)[Neu5Ac(a2-3)Gal(b1-4)GlcNAc(b1-2)Man(a1-6)]Man(b1-4)GlcNAc(b1-4)GlcNAc
# How it was run: as §1
# [38] = molecular target: Neu5Ac(a2-3)Gal(b1-4)GlcNAc(b1-2)Man(a1-3)[Neu5Ac(a2-3)Gal(b1-4)GlcNAc(b1-2)Man(a1-6)]Man(b1-4)GlcNAc(b1-4)[Fuc(a1-6)]GlcNAc
# How it was run: as §1
# [39] = molecular target: Neu5Ac(a2-3)Gal(b1-4)GlcNAc(b1-2)Man(a1-3)[Neu5Ac(a2-6)Gal(b1-4)GlcNAc(b1-2)Man(a1-6)]Man(b1-4)GlcNAc(b1-4)GlcNAc
# How it was run: as §1
binder,measurement,setting,value
B1,glycan array binding signal (z-score),[1],-0.387
same,glycan array binding signal (z-score),[2],-0.129
same,glycan array binding signal (z-score),[3],-0.321
same,glycan array binding signal (z-score),[4],-0.305
same,glycan array binding signal (z-score),[5],-0.336
same,glycan array binding signal (z-score),Man(a1-3)[Man(a1-6)]Man,-0.45
same,glycan array binding signal (z-score),[6],0.354
same,glycan array binding signal (z-score),[7],-0.045
same,glycan array binding signal (z-score),[8],-0.013
same,glycan array binding signal (z-score),[9],4.41
same,glycan array binding signal (z-score),[10],3.25
same,glycan array binding signal (z-score),Man(a1-6)Man,0.668
same,glycan array binding signal (z-score),Man(b1-4)GlcNAc,-0.343
same,glycan array binding signal (z-score),MurNAc(b1-4)GlcNAc,-0.344
same,glycan array binding signal (z-score),Neu5Ac(a2-3)Gal,-0.345
same,glycan array binding signal (z-score),[11],-0.084
same,glycan array binding signal (z-score),[12],-0.295
same,glycan array binding signal (z-score),[13],-0.274
same,glycan array binding signal (z-score),[14],-0.313
same,glycan array binding signal (z-score),[15],-0.397
same,glycan array binding signal (z-score),[16],-0.431
same,glycan array binding signal (z-score),[17],-0.35
same,glycan array binding signal (z-score),[18],-0.185
same,glycan array binding signal (z-score),[19],-0.22
same,glycan array binding signal (z-score),[20],-0.017
same,glycan array binding signal (z-score),[21],-0.285
same,glycan array binding signal (z-score),[22],-0.37
same,glycan array binding signal (z-score),[23],-0.185
same,glycan array binding signal (z-score),[24],-0.286
same,glycan array binding signal (z-score),[25],-0.2
same,glycan array binding signal (z-score),[26],-0.42
same,glycan array binding signal (z-score),[27],-0.302
same,glycan array binding signal (z-score),[28],-0.151
same,glycan array binding signal (z-score),[29],-0.168
same,glycan array binding signal (z-score),[30],-0.155
same,glycan array binding signal (z-score),[31],-0.265
same,glycan array binding signal (z-score),[32],-0.306
same,glycan array binding signal (z-score),[33],-0.315
same,glycan array binding signal (z-score),Neu5Ac(a2-3)Gal(b1-4)Glc,0.277
same,glycan array binding signal (z-score),[34],-0.327
same,glycan array binding signal (z-score),[35],-0.319
same,glycan array binding signal (z-score),[36],0.079
same,glycan array binding signal (z-score),[37],2.79
same,glycan array binding signal (z-score),[38],2.69
same,glycan array binding signal (z-score),[39],-0.192
